PubChem BioAssay AID624418 (National Center for Advancing Translational Sciences (NCATS), 2012)
Several values for one entry are separate records, joined by “and”; a condition that tells them apart may be missing. Equal values may be shown once. Screen size: about 410,000 compounds; about 530 (0.13%) were called active. The shares of active, inactive and inconclusive entries below differ from those in the screen. Calls come from the whole dose curve; as a rule, active = well fitted inhibition curve with a large enough effect; inconclusive = small, poorly fitted or top-dose-only effect, or another doubt; inactive = no such curve, though single readings can be large or run the other way. Potencies beside an inconclusive call are fits to weak or partial responses and may not hold up.

Experiment: qHTS of GLP-1 Receptor Inverse Agonists: Cytotox Screen
Conditions: HEK293 cAMP-luciferase reporter cells, luminescence, 24 h; activity change, negative = inhibition: at 38.3 µM (top of the series) unless noted
How it was run: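 A 23 nL compound transfer followed 12 hours of cell culture at 37 deg C; exposure then lasted 24 hr. Luciferase assay detection reagent was dispensed and plates read for luminescence after a 12 min room-temperature wait.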
% is set by controls: 0 for no effect and ±100 for the full control effect; potency is the fitted concentration of half-maximal effect.

Row | SMILES | Potency | activity change, negative = inhibition
1 | COc1ccc(C(N)c2csc(Nc3ccc(S(C)(=O)=O)cc3)n2)cc1 (configuration not stated) | inconclusive: 28.2 µM [inhibitor, partial curve, poor fit] | –
2 | CN(C)/C=C/C(=O)c1nnn(C2CCCCC2)c1NC1CCCCC1 | inconclusive: 10 µM [inhibitor, single point] | –
3 | COc1ccc(NC(=O)c2cc3c(=O)n(C)c4cc(Cl)ccc4c3s2)cc1Cl | – | inactive: -0.577%
4 | Cc1ccc(COn2c(-c3ccc(Cl)cc3Cl)nc3ncccc32)cc1 | – | inactive: -28.7%
5 | COc1cc2[nH]c(=S)nc(NCc3ccccn3)c2cc1OC | inconclusive: 28.2 µM [inhibitor, single point] | –
6 | Cc1cccc(NC(=O)COc2cccc3c2CCNC3=O)c1 | – | inactive: -9.62%
7 | O=c1[nH]c2cc3ccccc3cc2nc1-c1nnnn1C1CCCC1 | inconclusive: 7.94 µM [inhibitor, partial curve, poor fit] | –
8 | CC(C)(C)OC(=O)N1CCC(c2c(C(=O)NCc3ccco3)cnn2-c2ccc(F)cc2F)CC1 | – | inactive: 0.165%
9 | CCOc1cc(/C=C2\CN(C)C/C(=C\c3ccc(O)c(OCC)c3)C2=O)ccc1O | inconclusive: 1 µM [inhibitor, full curve, poor fit] | –
10 | CC1=C(C(=O)c2ccccc2)C(c2ccc(OC(F)F)cc2)NC(=S)N1 (configuration not stated) | inconclusive: 12.6 µM [inhibitor, single point] | –
11 | COc1cc2c(cc1NC(=O)c1cc(-c3ccncc3)nc3ccccc13)oc1ccccc12 | inconclusive: 2.24 µM [inhibitor, full curve] | –
12 | CCCC(=O)Nc1ccc(C(=O)Nc2cc(C(F)(F)F)ccc2Cl)cc1 | inconclusive: 10 µM [inhibitor, partial curve, poor fit] | –
13 | Cc1noc2ncnc(N3CCCC(C(=O)Nc4cc(F)ccc4F)C3)c12 (configuration not stated) | – | inactive: -7.89%
14 | Cc1c(C(=O)c2ccccc2)c2ccccn2c1CCc1ccccn1 | – | inactive: 1.16%
15 | COc1ccc(CN2CCC(Oc3ccc(C(=O)N4CCCCC4)cc3)CC2)cc1C | inconclusive: 28.2 µM [inhibitor, single point] | –
16 | Cc1cc2nc(NC(=O)C3(C)CCN3C(=O)C(C)C)[nH]c2cc1C (configuration not stated) | – | inactive: 1.39%
17 | COc1cc(C(C)=O)ccc1OCC(O)CN1CCN(c2ccc(C)cc2C)CC1 (configuration not stated) | inconclusive: 22.4 µM [inhibitor, single point] | –
18 | S=C(N/N=C1\C2CN3CCN(C2)CC1(c1ccccc1)C3)Nc1ccccc1 | inconclusive: 28.2 µM [inhibitor, single point] | –
19 | NC(=O)[C@@H]1CCCCNc2c(F)cc([N+](=O)[O-])cc2C(=O)N[C@@H](CCCN=C(N)N)C(=O)NCC(=O)N1 | inconclusive: 2 µM [inhibitor, full curve, poor fit] | –
20 | COc1ccc(C)cc1Nc1c2c(nc3ccccc13)CCC2 | inconclusive: 2 µM [inhibitor, full curve, poor fit] and inconclusive: 3.98 µM [inhibitor, partial curve, poor fit] | –
21 | Cc1ccc(NC(=S)NCc2ccc(Cl)cc2)c(C)c1 | inconclusive: 28.2 µM [inhibitor, single point] | –
22 | COc1cc(/C=N/NC(=O)c2cc(-c3cccc(OC(C)C)c3)nc3ccccc23)ccc1O | inconclusive: 28.2 µM [inhibitor, single point] | –
23 | O=C(NNC(=S)NCc1ccccc1)c1cccnc1 | – | inactive: -5.3%

Row | SMILES | Potency | activity change, negative = inhibition
24 | O=C(O)C1C2C=CC(C2)C1C(=O)NCCCN1CCCC1=O (configuration not stated) | – | inactive: 5.84%
25 | Nc1ncc(-c2ccccc2)n1CC1CCCO1 (configuration not stated) | – | inactive: 2.05%
26 | Cc1c(C)n(C)c2ccc(C(=O)NCCCN3CCN(c4ccccc4F)CC3)cc12 | inconclusive: 11.2 µM [inhibitor, single point] | –
27 | C=C1C(=O)C23CCC4C(C)(C(=O)OC)CCCC4(C)C2CCC1(O)C3 (configuration not stated) | inconclusive: 2 µM [inhibitor, full curve] | –
28 | CC(=O)n1cc(C(C[N+](=O)[O-])SCCN)c2ccccc21 (configuration not stated) | inconclusive: 28.2 µM [inhibitor, single point] | –
29 | Cc1cc(C)cc(-n2nnnc2SCC(=O)Nc2cccc(NC(=O)c3ccco3)c2)c1 | inconclusive: 22.4 µM [inhibitor, partial curve, poor fit] | –
30 | COC(=O)c1ccc(NC(=S)Nc2ccccn2)cc1 | – | inactive: -24.7%
31 | CCn1c(SCC(=O)N/N=C/C=C/c2ccco2)nnc1-c1ccc(OC)cc1 | inconclusive: 17.8 µM [inhibitor, single point] | –
32 | COc1ccc(-c2noc(CSc3nnc(CCc4ccccc4)n3-c3ccccc3)n2)cc1OC | inconclusive: 31.6 µM [inhibitor, single point] | –
33 | COc1ccccc1/C=C/C(=O)NC(=S)N1CCOCC1 | inconclusive: 5.62 µM [inhibitor, single point] | –
34 | COc1ccc(C(O)c2coc3ccc(O)c(CN(C)C)c23)cc1 (configuration not stated) | inconclusive: 11.2 µM [inhibitor, single point] | –
35 | COc1ccc(N2CCN(C(=O)CN=C3NS(=O)(=O)C(c4ccc(C)cc4)=C3C)CC2)cc1 | inconclusive: 3.55 µM [inhibitor, full curve, poor fit] | –
36 | CCC(c1nc2ccccc2c(=O)n1-c1cccnc1)N1C(=O)c2ccccc2C1=O (configuration not stated) | inconclusive: 11.2 µM [inhibitor, partial curve, poor fit] | –
37 | O=C(O)c1cccc(Nc2ccncc2[N+](=O)[O-])c1 | – | inactive: -12.3%
38 | Cc1ccc(NC(=O)NCc2nc3ccccc3n2C)cc1 | – | inactive: -2.53%
39 | CCN(c1ccccc1)S(=O)(=O)c1ccc(Cl)c(NC(=O)CN(C)Cc2cccc(F)c2)c1 | – | inactive: 4.9%
40 | Cc1cc(Nc2cccc([N+](=O)[O-])c2)c2cccc(C)c2n1 | inconclusive: 11.2 µM [inhibitor, single point] | –
41 | CCN(CC)CCC(=O)N1c2ccccc2CCc2ccc(NC(=O)OC)cc21 | inconclusive: 28.2 µM [inhibitor, single point] | –
42 | Cc1ccc(C)c(NC(=O)CSc2nnc(CNC(=O)c3ccccc3)n2-c2ccccc2)c1 | – | inactive: -9.29%
43 | CC(C)(C)c1ccc(/C=N/NC(=S)NC2CCCCC2)cc1 | inconclusive: 5.62 µM [inhibitor, full curve, poor fit] | –
44 | C(#Cc1ccc(C#CCN2CCCC2)cc1)CN1CCCC1 | inconclusive: 10 µM [inhibitor, single point] | –
45 | CCOC(=O)CC(=O)Nc1ccsc1C(N)=O | inconclusive: 10 µM [inhibitor, single point] | –
46 | O[C@@H]1CN(CC2CCCCC2)[C@@H](c2ccccc2)C[C@H]1n1cc(-c2ccc(F)cc2)nn1 | inconclusive: 28.2 µM [inhibitor, single point] | –

Row | SMILES | Potency | activity change, negative = inhibition
47 | OCC1(CCOc2ccccc2)CCN(CC2=Cc3cc(Cl)ccc3OC2)CC1 | inconclusive: 28.2 µM [inhibitor, single point] | –
48 | COc1ccc(-c2cc(OC(=O)c3ccccc3C)c3c(C)oc(C)c3c(=O)c2)cc1 | – | inactive: -18.8%
49 | COc1ccc(F)cc1C(=O)C1CCCN(Cc2cccn2-c2ccccn2)C1 (configuration not stated) | inconclusive: 20 µM [inhibitor, single point] | –
50 | COc1ccc(Nc2nc(N)c(C(=O)c3ccc(OC)cc3)s2)cc1 | – | inactive: -7.42%
51 | CC1(C(=O)Nc2ccc3c(c2)OCO3)Cc2c(-c3ccc4c(c3)OCO4)ccnc2O1 (configuration not stated) | inconclusive: 1 µM [inhibitor, full curve] | –
52 | COc1cc2cc(C(c3nnnn3C3CCCCC3)N(C)C3CCCCC3)c(=O)[nH]c2cc1OC (configuration not stated) | inconclusive: 10 µM [inhibitor, partial curve, poor fit] | –
53 | Cc1cccc(Nc2nc(N)nc(CN3CCN(Cc4ccc5c(c4)OCO5)CC3)n2)c1 | – | inactive: -17.2%
54 | Cc1ccc2c(c1)c1c(n2CC(O)CN2CCCCC2C)CCCC1 (configuration not stated) | inconclusive: 28.2 µM [inhibitor, single point] | –
55 | O=C(CSc1nnc(SCc2ccc(Cl)cc2)s1)N/N=C/c1ccccc1Cl | inconclusive: 28.2 µM [inhibitor, single point] | –
56 | Cc1ccc(-c2nc(N)sc2-c2ccc(C)cc2)cc1 | inconclusive: 12.6 µM [inhibitor, single point] | –
57 | Cc1csc2nc(COC(=O)c3ccc(F)cc3)cc(=O)n12 | – | inactive: -4.18%
58 | Cc1ccc(NC(=S)NCc2ccc(Cl)cc2)c(OC(F)F)c1 | inconclusive: 28.2 µM [inhibitor, single point] | –
59 | COc1ccc(Cl)cc1-c1cc(C(=O)Nc2cc(OC)c(OC)c(OC)c2)[nH]n1 | inconclusive: 11.2 µM [inhibitor, single point] | –
60 | COc1ccc(C=Nc2cccnc2N)cc1 | – | inactive: 141%
61 | O=C(CSc1nc2ccc([N+](=O)[O-])cc2[nH]1)c1ccc(Cl)cc1 | inconclusive: 20 µM [inhibitor, single point] | –
62 | CC1=CC(C)(C)N=C(Nc2nc(C)c3cc(C)cc(C)c3n2)N1 | inconclusive: 12.6 µM [inhibitor, single point] | –
63 | O=c1c2ccccc2cnn1Cc1ccc(Br)cc1F | inconclusive: 31.6 µM [inhibitor, partial curve, poor fit] | –
64 | COC(=O)c1cc2oc3ccccc3c2n1CC(=O)Nc1cccc(SC)c1 | – | inactive: 5.46%
65 | Cc1cccc(C(=O)O/N=C(\N)Cc2ccc([N+](=O)[O-])cc2)c1 | inconclusive: 28.2 µM [inhibitor, single point] | –
66 | CCc1cccc(NC(=O)CCCN2C(=O)C(c3ccccc3)Oc3cccnc32)c1 (configuration not stated) | inconclusive: 22.4 µM [inhibitor, single point] | –
67 | COc1ccc(CN2CCc3cc(OC)c(OC)cc3C2)cc1O | inconclusive: 28.2 µM [inhibitor, single point] | –
